In article PMC4336329 (PLoS ONE, 2015):
Out of some 310,000 compounds screened, about 2,200 (0.71%) showed an effect of 50% or more. Effects have a minus sign here. This is one part of the list.

Target: human ether-à-go-go-related gene (hERG) potassium channel (human, UniProt Q12809)
Assay: primary screen, population patch clamp on CHO cells stably expressing hERG

human ether-à-go-go-related gene (hERG) potassium channel, sequence (Q12809 whole entry, looked up): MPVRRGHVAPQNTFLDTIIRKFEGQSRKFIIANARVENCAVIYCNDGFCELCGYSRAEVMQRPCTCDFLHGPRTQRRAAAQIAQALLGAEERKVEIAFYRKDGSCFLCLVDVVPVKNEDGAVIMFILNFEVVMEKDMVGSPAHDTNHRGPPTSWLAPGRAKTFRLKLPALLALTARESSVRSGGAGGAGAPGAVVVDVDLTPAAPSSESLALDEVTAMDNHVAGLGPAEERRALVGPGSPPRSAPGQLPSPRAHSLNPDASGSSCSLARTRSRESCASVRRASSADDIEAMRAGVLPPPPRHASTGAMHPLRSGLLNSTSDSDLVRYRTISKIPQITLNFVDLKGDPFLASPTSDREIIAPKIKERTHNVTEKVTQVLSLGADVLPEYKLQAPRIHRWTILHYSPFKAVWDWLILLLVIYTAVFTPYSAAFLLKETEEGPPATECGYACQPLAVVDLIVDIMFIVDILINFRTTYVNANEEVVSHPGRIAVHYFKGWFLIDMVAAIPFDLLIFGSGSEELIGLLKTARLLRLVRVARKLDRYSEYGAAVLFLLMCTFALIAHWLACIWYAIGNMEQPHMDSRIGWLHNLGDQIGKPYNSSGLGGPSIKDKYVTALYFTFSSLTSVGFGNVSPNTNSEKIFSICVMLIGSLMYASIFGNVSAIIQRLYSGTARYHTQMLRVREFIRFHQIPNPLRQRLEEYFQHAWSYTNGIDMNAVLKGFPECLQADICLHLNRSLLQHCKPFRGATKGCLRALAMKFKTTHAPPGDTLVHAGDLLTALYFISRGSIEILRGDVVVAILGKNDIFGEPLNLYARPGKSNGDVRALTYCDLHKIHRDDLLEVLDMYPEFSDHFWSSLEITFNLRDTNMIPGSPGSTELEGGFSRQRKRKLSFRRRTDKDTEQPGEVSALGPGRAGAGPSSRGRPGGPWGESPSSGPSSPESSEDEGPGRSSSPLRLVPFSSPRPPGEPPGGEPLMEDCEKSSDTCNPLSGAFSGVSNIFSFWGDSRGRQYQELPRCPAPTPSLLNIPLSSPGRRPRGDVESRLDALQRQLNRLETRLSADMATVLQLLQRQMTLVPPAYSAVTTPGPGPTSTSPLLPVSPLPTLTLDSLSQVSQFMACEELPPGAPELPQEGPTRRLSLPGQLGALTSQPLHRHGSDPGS

Structure (SMILES)	hERG current change (%, negative = inhibition) at 1uM
CCCN1CCC(=O)N([C@H](COc2ccccc2)CC(C)C)CC1	-48.1%
CCc1nc(SCC(=O)N2CCN(c3ccccc3)CC2)c2oc3ccccc3c2n1	5%
Cc1cc(C(=O)Nc2ccccc2C)n(-c2ccccc2)n1	14.7%
Cc1c(-n2c(SCC(=O)NC(C)C)nc3ccccc3c2=O)c(=O)n(-c2ccccc2)n1C	12.8%
CC(C)(CO)NC(=O)C(Cc1ccccc1)N1C(=O)c2ccccc2C1=O (stereo not shown)	13.5%
C=C(CO)C1Cc2cc(C(C)=O)ccc2O1 (stereo not shown)	9%
CCCn1cc(CN2CCC(n3nccc3NC(=O)c3ccccc3)CC2)c(C)n1	-0.739%
CN(C)/C=C(\C#N)C(=O)N/N=C/c1ccc(F)cc1	4.98%
O=C(CCCCCCC(=O)Nc1ccccc1)NO	10.8%
CCCn1nc(C(=O)NNC(=O)Cc2ccc(S(=O)(=O)N3CCOCC3)s2)c2ccccc2c1=O	2.16%
Cc1noc(C)c1C(=O)Nc1ccc2c(c1)CCC2	3.87%
OCCOCCn1c(C(CO)Nc2nc(-c3ccc(Cl)cc3)cs2)nc2ccccc21 (stereo not shown)	5.34%
COCCNC(=O)c1ccc2c(c1)ncn2-c1cccc(C)c1	0.687%
CCOC(=O)Nc1ccc2c(c1)N(C(=O)CCN1CCN(CCO)CC1)c1ccccc1S2.Cl	3.53%
COCCCN1C(=O)c2ccc(C(=O)NCc3ccco3)cc2C1=O	1.6%
CCn1ncc(C2=NOC(C(=O)NCCc3ccccc3)C2)c1C (stereo not shown)	4.86%
Cc1c(C(=O)OCC(=O)N2CCC(C)CC2)oc2ccccc12	-3.05%
S=C(NCc1ccc(Cl)c(Cl)c1)Nc1ccc2c(c1)OCO2	-1.56%
CCc1ccccc1OC[C@@H](O)CN[C@H]1CCCc2ccccc21.O=C(O)C(=O)O	4.4%
COc1cc(CCC(=O)Nc2ccc(Cl)c(C(F)(F)F)c2)cc(OC)c1OC	17.3%

Structure (SMILES)	hERG current change (%, negative = inhibition) at 1uM
CC1CC(C)CN(c2ccc(NS(=O)(=O)c3ccccc3)cc2C(=O)O)C1 (stereo not shown)	1.93%
COc1ccccc1-c1ccc2nnc(SCC(=O)N3CCCC3)n2n1	11.8%
CCc1ccc(C(=O)Nc2cccc(-c3nn[nH]n3)c2)s1	12%
COc1ccc(CC(NC(C)=O)C(=O)N2CCN(C(=O)Nc3cccc(F)c3)CC2)cc1OC (stereo not shown)	7.65%
O=C(C1CCN(S(=O)(=O)c2cccc3cccnc23)CC1)N1CCN(C2CCCC2)CC1	14.7%
C[C@H](NC(=O)[C@@H]1Cc2ccccc2CN1)C(=O)NCC1CCCO1 (stereo partly shown)	22.3%
CCCOc1ccccc1/C=N/NC(=O)C1CC1	10.8%
O=C(O)CCSc1nnc(-c2ccncc2)n1-c1ccccc1	6.18%
CC(C)(CNS(=O)(=O)c1ccc2ccccc2c1)N1CCOCC1	4.09%
Cc1ccc(Nc2nnc(-c3ccncc3)s2)c(Br)c1	-17.6%
Cc1cc(NC(=O)CSc2nc(N)c(NC(=O)c3ccccc3F)c(=O)[nH]2)no1	24.6%
CCN(CC)c1nc2ccccc2[nH]c1=O	12.3%
O=C(O)c1ccccc1/C=N/NC(=O)c1cc(-c2ccco2)nc2ccccc12	12.8%
CCOC(=O)c1[nH]c2ccc(C)cc2c1N	15%
Cc1ccc(C)c(S(=O)(=O)N2CCCC2CNC(=O)C(=O)NCc2ccco2)c1 (stereo not shown)	-12.4%
CC12CC(O)C3c4ccc(O)cc4CCC3C1CC/C2=N\O (stereo not shown)	11.7%
O=C1C2C3C=CC(CC3)C2C(=O)N1/N=C/c1ccc(O)c(O)c1 (stereo not shown)	-15%
CN(Cc1ccccc1)C(=O)CSc1nc2ccccc2[nH]1	8.86%
CCOC(=O)c1c(C)nsc1NC(=O)c1ccco1	5.14%
CCN1C(=O)OC2(CCCCC2)C1(C)O (stereo not shown)	10.3%

Structure (SMILES)	hERG current change (%, negative = inhibition) at 1uM
CCN(CC)CCSc1nc(O)c(-c2ccccc2)c(=O)n1-c1ccccc1.Cl	3.79%
COC(=O)CSC1=C(C#N)C(c2cccc(OC)c2)CC(=O)N1 (stereo not shown)	11.6%
Cc1ccc(NC(=O)c2cc3ccccc3o2)cc1Cl	15.8%
Cn1nnnc1SCC(=O)NCCCc1ccccc1	-7.14%
CN1C(=O)CSC1=NCC12CC3CC(CC(C3)C1)C2	-2.87%
COc1ccc(-c2nn(-c3ccccc3)cc2C(=O)Nc2nc(CC(C)=O)ns2)cc1	13.6%
O=C(COc1ccccc1[N+](=O)[O-])Nc1cccc(S(=O)(=O)NC2=NCCCCC2)c1	18%
CCc1nnc(NC(=O)CCC(=O)N2CCN(Cc3ccc(C)cc3C)CC2)s1	7.6%
COc1ccc2ccccc2c1CNCc1ccccn1.Cl	4.73%
COc1ccccc1NC(=O)CCC(=O)N(Cc1ccc(OC)c(OC)c1)c1nccs1	14.4%
CCOC(=O)c1c(NC(=O)c2nn(CC)cc2Br)sc2c1CCCCC2	11.4%
O=C(Cc1ccccc1)Nc1ccccc1C(=O)Nc1ccccc1	3.69%
Cc1cc(C)n(C(=O)Cc2cn3ccsc3n2)n1	4.06%
CCc1c(C)sc(NC(=O)c2ccc(Br)o2)c1C(=O)OC	20.5%
COc1ccc(CNC(=O)CN2C(=O)NC(C)(c3ccc(Cl)cc3)C2=O)cc1 (stereo not shown)	6.2%
O=C(Nc1ccc(N2CCN(Cc3ccccc3)CC2)cc1)c1cccnc1	5.66%
O=c1c2[nH]c3ccccc3c2nc2n1CCCS2	-2.85%
O=c1[nH]nc(Cc2ccc(-c3cccc(Cl)c3)o2)c2ccccc12	6.53%
